Hit rate of the full screen: of about 150,000 compounds, about 540 (0.36%) showed an effect of 50% or more. The list shows a part of the results.

The experiment relates to Plasmodium falciparum. Description: Primary screen in NF54 nanoGlo assay, in single point, at 2uM, 72h; a lower Z score goes with more inhibition. Format: functional, Erythrocyte. Particulars: timepoint 72 hour.
On to `Cc1ccn(-c2ccccc2NC(=O)N2CCC[C@H](S(N)(=O)=O)C2)n1`, for which the % Inhibition (usually the drop in the measured response relative to a control, in per cent) came to 1% and the Z score was -0.1.

Consider `O=C(NC1CCCC1)c1ccc(N2CCC(N[C@@H](CCn3ccnc3)c3ccccc3)CC2)cc1`, for which the “% Inhibition” value was -2% and the Z score was 0.31.

For the compound `CCS(=O)(=O)NCCCNc1ncc(F)c(NCC(F)F)n1`, the “% Inhibition” value is -6% and the Z score was 0.88.

In the case of `c1cnc(O[C@H]2CC[C@H](Nc3ccc4nccnc4n3)CC2)cn1`, the “% Inhibition” value is listed as -7% and the Z score is 1.3.

Regarding `CNC1CCN(Cc2cccc(-c3nc(-c4cc(C)oc4C)cc(=O)[nH]3)c2)CC1`, the “% Inhibition” value is listed as -6% and the Z score was determined as 1.16.

Consider `Nc1nc2c(c(N3CCC(Oc4ccccc4F)CC3)n1)CCNCC2`, for which the “% Inhibition” value came to 7% and the Z score is reported as -1.24.

Turning to `c1cc2c(N3CCC(COc4cc(C5CCC5)ncn4)CC3)ncnc2cn1`, the “% Inhibition” value was -18% and the Z score worked out at 2.76.

`CCNC(=O)N1CCC(NC(=O)c2cccc(-c3ccnc(N)n3)c2)CC1`: the “% Inhibition” value was -9% and the Z score is listed as 1.87.

Consider `Cn1cc(CC(NC(=O)OC(C)(C)C)C(=O)N2CCC3(O)CCCCC3C2)c2ccccc21` (centres undefined), for which the “% Inhibition” value is recorded as -13% and the Z score came to 2.27.

On to `CCN1CCC[C@H](CN2CCCN(c3ncccn3)CC2)C1`, for which the “% Inhibition” value is -3% and the Z score came out at 0.59.

For `CCN1CCC[C@@H]1CNc1c(S(=O)(=O)c2cccc(F)c2)cnc2cc(F)ccc12`, the “% Inhibition” value is listed as -8% and the Z score is listed as 1.38.

Regarding `O=C(NCC1CCNCC1)c1cccc(-c2cc(C(=O)NC3CC3)ccn2)c1`, the “% Inhibition” value is recorded as -10% and the Z score is 1.74.

In the case of `O=S(=O)(Nc1nccs1)c1ccc(Nc2ccnc3ccc(C(F)(F)F)cc23)cc1`, the “% Inhibition” value is recorded as 5% and the Z score is -0.78.

On to `Nc1nc(NC2CC2)cc(N2CCC(c3cc[nH]c(=O)c3)CC2)n1`, for which the “% Inhibition” value was -7% and the Z score is reported as 1.02.

`Cc1ocnc1CNc1ccc(C(F)(F)F)c(C#N)c1`: the “% Inhibition” value is -8% and the Z score was determined as 1.62.

Turning to `Cc1ccncc1CCCNC[C@H]1CCCN(Cc2cccnc2)C1`, the “% Inhibition” value came out at 11% and the Z score is given as -1.69.

Turning to `CC(C)N1CCN(c2cc(N3CCN(C(C)C)CC3)ncn2)CC1`, the “% Inhibition” value is given as -4% and the Z score came to 0.62.

For `O=C(NCCCN1CCC(O)CC1)N1CCN(Cc2cccc(O)c2)CC1`, the “% Inhibition” value is 2% and the Z score is -0.35.

For the compound `CC(C)n1ncc2cc(CN3CCC(N4CCS(=O)(=O)CC4)CC3)cnc21`, the “% Inhibition” value is on record as -5% and the Z score was determined as 0.91.

For the compound `Fc1ccc(CNC2CC2Nc2nc(C(F)(F)F)nc3ccccc23)cc1` (centres undefined), the “% Inhibition” value came to 3% and the Z score is on record as -0.52.

Turning to `COc1ccc2nc(C(=O)Nc3cc(C)nc(C(C)C)n3)ccc2c1`, the “% Inhibition” value was -9% and the Z score is on record as 1.62.

In the case of `COc1ccc(-c2ccncc2)cc1CN1CCN(c2ccnc(C)n2)CC1`, the “% Inhibition” value stood at 4% and the Z score was -0.84.

For `O=S(=O)(NCCNc1cc(Nc2ccccn2)ncn1)c1ccccc1C(F)(F)F`, the “% Inhibition” value is -10% and the Z score is 1.74.

On to `Oc1cccc(CN2CCC(NC[C@]3(O)CCCN4CCCC[C@@H]43)CC2)c1`, for which the “% Inhibition” value was -5% and the Z score was 0.96.

Consider `CCN1CCN(C(=O)c2ccc(N3CCC(N(C)Cc4nc5cc(C)c(C)cc5[nH]4)CC3)cc2)CC1`, for which the “% Inhibition” value is 2% and the Z score is on record as -0.44.

For `CN1CCC(N2CCC(NC(=O)N3CCOc4ccccc4C3)CC2)CC1`, the “% Inhibition” value was found to be 1% and the Z score is listed as -0.17.

For `CC(C)(O)CN1CCc2c(cccc2NCc2ccc3occc3c2)C1`, the “% Inhibition” value worked out at 4% and the Z score is -0.62.

As to `O=C1CO[C@]2(CCN(C(=O)c3cncc(Cl)c3)C2)CN1`, the “% Inhibition” value is 9% and the Z score is -1.84.

As for `c1cc2c(NC[C@@H](c3ccsc3)N3CCOCC3)ncnc2cn1`, the “% Inhibition” value is reported as -9% and the Z score is recorded as 1.44.

With `COc1ccc2ncc(Cl)c(NC[C@H]3CC(=O)N(C4CC4)C3)c2c1`, the “% Inhibition” value is reported as -11% and the Z score is listed as 1.65.

As for `Cc1nn(C)c(C)c1C(=O)N1CCC(N2CCC(Oc3ncc(C(F)(F)F)cc3Cl)CC2)CC1`, the “% Inhibition” value is reported as 2% and the Z score is -0.35.

Take `Cc1cc(N2CCC(NC3CCCC3Cc3ccc(F)cc3)CC2)nc(N)n1` (centres undefined): the “% Inhibition” value is on record as 96% and the Z score was -14.52.

For the compound `O=C(Cn1nc2ccccc2c1O)NC[C@H](O)CN1CCCCCC1`, the “% Inhibition” value is -8% and the Z score is recorded as 1.33.

Take `CCN1C[C@@H](n2cnc(-c3ccccc3)c2-c2cnn3cccnc23)CC1=O`: the “% Inhibition” value was determined as 2% and the Z score is given as -0.28.

Turning to `CN1CCN(CCNC(CC2CCCN2C(=O)OC(C)(C)C)C2CC2)CC1(C)C` (centres undefined), the “% Inhibition” value is 3% and the Z score is listed as -0.57.

For the compound `Cc1nn(C)c(OCC(F)(F)F)c1CNC1CC(C)(C)NC(C)(C)C1`, the “% Inhibition” value is -7% and the Z score was determined as 1.17.

In the case of `COCCN1CCC(CN(C)C(=O)c2ccc(-c3cncc(N)c3)cc2)CC1`, the “% Inhibition” value is listed as 2% and the Z score was -0.4.

As to `COc1ccc(-c2ccncc2)cc1CNC[C@H]1CC(=O)N(C2CC2)C1`, the “% Inhibition” value came out at 3% and the Z score is -0.73.

Turning to `O=C(NCc1ccncc1O[C@H]1CCNC1)c1cc(F)cc2[nH]cnc12`, the “% Inhibition” value worked out at 19% and the Z score is -2.96.

In the case of `COc1ccc2nc(C(=O)Nc3nc(-c4ccc([C@H](C)NC(C)=O)cc4)cs3)ccc2c1`, the “% Inhibition” value is listed as -10% and the Z score is on record as 1.49.

Regarding `COC(=O)N1CCC(NCCNc2ccc(C(F)(F)F)cn2)CC1`, the “% Inhibition” value is recorded as 0% and the Z score is reported as 0.07.

With `COc1cc(C(=O)N2CCN(C)[C@H](c3nc(C)no3)C2)ncn1`, the “% Inhibition” value was -7% and the Z score is 1.61.

As for `COc1nccc(-c2nc3cccc(Cl)c3[nH]2)c1F`, the “% Inhibition” value was -8% and the Z score stood at 1.69.

For the compound `Fc1ccccc1Nc1nc(-c2ccccc2)c(-c2ccccc2)s1`, the “% Inhibition” value was 0% and the Z score was -0.06.

For the compound `CN1CCC(CN2CCN(C(=O)c3cnoc3-c3ccccc3)CC2)CC1`, the “% Inhibition” value was -4% and the Z score was 0.64.

With `CC1(C)CC(Nc2nc3cc(F)ccc3o2)CC(C)(C)N1`, the “% Inhibition” value is -1% and the Z score stood at 0.1.

Take `Nc1nc(NCCN2CCCC[C@@H]2CO)c2cc(C(=O)O)ccc2n1`: the “% Inhibition” value is on record as -8% and the Z score is on record as 1.48.

Regarding `O[C@@H]1C[C@H](O)CN(c2ncc(Cl)c(Nc3ccc(F)cc3)n2)C1`, the “% Inhibition” value was -2% and the Z score came to 0.34.

With `C[C@]1(c2nc(-c3c[nH]c4ncc(Br)cc34)no2)CCN(C(=O)OCc2ccccc2)C1`, the “% Inhibition” value was 0% and the Z score came to 0.07.

With `O=C(CN1CCCN(CC2CCCCC2)CC1)NCc1ccc(OC(F)F)cc1`, the “% Inhibition” value is recorded as -3% and the Z score came to 0.56.

For `Cc1c(C(=O)N2CC(CO)C(CN3CCCCCC3)C2)[nH]c2ccccc12` (centres undefined), the “% Inhibition” value was -8% and the Z score is on record as 1.39.

With `CN1CCC(NC(=O)c2cccc(-c3ccc(F)c(C#N)c3)c2)CC1`, the “% Inhibition” value was -4% and the Z score came out at 0.71.

Values taken from ChEMBL document CHEMBL5308541, “MAIP: An Open-Source Tool to Enrich High-Throughput Screening Output and Identify Novel, Druglike Molecules with Antimalarial Activity” (ACS Med Chem Lett, 2023).
